Data published in PubChem BioAssay AID485281 (National Center for Advancing Translational Sciences (NCATS), 2010).
Screen size: about 350,000 compounds; about 260 (0.074%) were called active. The inconclusive results got no clear call from the source; some entries with a clear call stand among them for comparison. Calls come from the whole dose curve; as a rule, active = well fitted inhibition curve with a large enough effect; inconclusive = small, poorly fitted or top-dose-only effect; inactive = no such curve, though single readings can be large or run the other way. Where the call is inconclusive, the potency comes from a doubtful curve fit.

target: Ferritin light chain (Equus caballus) (UniProt P02791); assay: qHTS Assay for Identification of Novel General Anesthetics; settings: apoferritin/1-aminoanthracene competitive binding, fluorescence; activity change, negative = displacement: at 77.5 µM (top of the series); note: nearly all actives have a fitted effect of over 20% in size
Sequence of UniProt P02791 (P02791 whole entry, looked up): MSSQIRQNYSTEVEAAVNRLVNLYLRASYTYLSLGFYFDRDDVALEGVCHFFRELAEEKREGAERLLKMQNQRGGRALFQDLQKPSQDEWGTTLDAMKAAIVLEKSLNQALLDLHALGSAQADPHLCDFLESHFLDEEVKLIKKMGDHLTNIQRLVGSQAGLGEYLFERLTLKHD
Method in brief: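 Horse-spleen apoferritin (10 uM) was mixed with 50% saturated 1-aminoanthracene in PBS, exposed to compounds for 10 min at room temperature, and read for fluorescence (ex 380 nm, em 535 nm). Competitive displacement was fitted with a four-parameter Hill equation.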
% is set by controls: 0 for no effect and ±100 for the full control effect; potency is the fitted concentration of half-maximal effect; tags give direction and shape of the fitted curve.

SMILES | Potency | activity change, negative = displacement
Cc1ccc(C)c(N2CCN(C(=O)CN3C(=O)COc4ccc(S(=O)(=O)N5CCOCC5)cc43)CC2)c1 | inconclusive: 1 µM [inhibitor, full curve] | 
CCC(=O)Nc1ccc(N2CCCCC2)cc1 | inconclusive: 50.1 µM [inhibitor, single point] | 
Cc1nc(C)c(-c2csc(NCc3ccccc3)n2)s1 | inconclusive: 14.1 µM [inhibitor, partial curve] | 
CCSc1ccccc1C(=O)n1nnc2ccccc21 | inconclusive: 39.8 µM [inhibitor, partial curve, poor fit] | 
Cn1c(N2CCOCC2)c(/C=N/OC(=O)c2ccc(F)cc2)c2ccccc21 |  | inactive: -11.4%
COc1ccccc1Nc1nc2c(S(=O)(=O)c3ccc(C(C)C)cc3)nnn2c2ccsc12 | inconclusive: 1.12 µM [inhibitor, full curve] | 
Cc1cccc(N2Cc3ccccc3C2=NC(=O)c2ccc(Cl)nc2)c1 | inconclusive: 31.6 µM [inhibitor, single point] | 
COc1ccc(-n2c(CNc3ccc(C)cc3)nnc2SCc2ccccc2)cc1 | inconclusive: 14.1 µM [inhibitor, partial curve] | 
CCOc1cccc2oc(-c3ccccc3Cl)cc(=O)c12 | inconclusive: 39.8 µM [inhibitor, partial curve] | 
Cc1cccc(N2CCN(c3ncnc4onc(-c5ccc(F)cc5)c34)CC2C)c1 (stereo not drawn) | inconclusive: 7.08 µM [inhibitor, full curve, poor fit] | 
Cc1csc(NC(=O)CSc2ccc(-c3ccc(F)cc3)nn2)n1 | inconclusive: 28.2 µM [inhibitor, partial curve] | 
Cc1ccc2c(=O)cc(C(=O)Nc3ccc(S(=O)(=O)N4CCCCC4)cc3)oc2c1C | inconclusive: 0.794 µM [inhibitor, full curve, poor fit] | 
CCOC(=O)C1CCCN(CC(=O)Nc2c(C(=O)OC)[nH]c3ccc(C)cc23)C1 (stereo not drawn) | inconclusive: 39.8 µM [inhibitor, partial curve] | 
Cc1ccc([N+](=O)[O-])cc1NC(=O)Nc1onc(C)c1C |  | inactive: -8.72%
COc1ccc(NC(=O)CN2CCN(CC(=O)Nc3ccccc3Cl)CC2)cc1 |  | inactive: -10.6%
N#Cc1ccccc1CCN1C(=O)c2ccccc2C1=O | inconclusive: 31.6 µM [inhibitor, partial curve] | 
Cc1ccc(S(=O)(=O)NCCSC(C)(C)C)cc1 | inconclusive: 39.8 µM [inhibitor, partial curve] | 
Cc1ccc2nc(SCC(=O)Nc3cccc([N+](=O)[O-])c3)[nH]c2c1 | inconclusive: 31.6 µM [inhibitor, partial curve] | 
Cc1cc(C)c2c(=O)[nH]c(SCc3ccccc3C)nc2n1 | inconclusive: 39.8 µM [inhibitor, single point] | 
Cc1ccc(/C=C/C(=O)NCCCN2CCN(CCCNC(=O)/C=C/c3ccc(C)cc3)CC2)cc1 |  | inactive: -3.75%
CC(C)c1ccc(CNc2cc(N3CCCC3)ccc2[N+](=O)[O-])cc1 | inconclusive: 12.6 µM [inhibitor, partial curve] | 
COc1ccc(OCC(=O)N2CCN(c3cccc(C(F)(F)F)c3)CC2)cc1 | inconclusive: 50.1 µM [inhibitor, single point] | 
O=C(Nc1nc(-c2ccc3c(c2)OCO3)cs1)c1ccncc1 | inconclusive: 28.2 µM [inhibitor, partial curve] | 

SMILES | Potency | activity change, negative = displacement
COc1ccc(C2(CCN=Cc3ccc(N(C)C)cc3)CCOC(C)(C)C2)cc1 (stereo not drawn) | inconclusive: 39.8 µM [inhibitor, single point] | 
Cc1cc(S(=O)(=O)Nc2ccc3ccccc3c2)c(C)s1 | inconclusive: 11.2 µM [inhibitor, partial curve] | 
CCc1ccccc1Nc1cc(C(=O)NCc2ccccn2)c2ccccc2n1 | inconclusive: 25.1 µM [inhibitor, partial curve] | 
O=C(O)c1ccccc1C(=O)N1N=C2/C(=C/c3cccc([N+](=O)[O-])c3)CCCC2C1c1cccc([N+](=O)[O-])c1 (stereo not drawn) | inconclusive: 22.4 µM [inhibitor, partial curve] | 
N#C/C(=C\c1ccco1)Sc1nc2ccccc2s1 | inconclusive: 35.5 µM [inhibitor, single point] | 
O=C1COc2ccc(C(=O)COC(=O)Cc3ccccc3F)cc2N1 | inconclusive: 50.1 µM [inhibitor, single point] | 
CCN(CC)c1ccc(/C=C(\C#N)c2ccccn2)cc1 |  | inactive: -20.2%
O=C(OCC(=O)c1cccs1)c1cccc(C(=O)OCC(=O)c2cccs2)n1 | inconclusive: 31.6 µM [inhibitor, partial curve] | 
Fc1ccccc1COc1ccc(C(=S)N2CCCC2)cc1 | inconclusive: 12.6 µM [inhibitor, partial curve] | 
CCCCCCC1CC(CSC(=N)N)OC1=O (stereo not drawn) | inconclusive: 35.5 µM [inhibitor, partial curve] | 
Cc1ccc2c(CN3C(=O)NC4(CCCCC4)C3=O)cc(=O)oc2c1C | inconclusive: 12.6 µM [inhibitor, partial curve] | 
COCCN(CCOC)c1ncc(Cl)c(C(=O)c2c(C)cc3ccccn23)n1 | inconclusive: 44.7 µM [inhibitor, partial curve] | 
O=C1CCNc2cc3ccccc3cc21 |  | inactive: 33.6%
CN1CCN(S(=O)(=O)c2ccc(NCc3ccc4c(c3)OCO4)nc2)CC1 | inconclusive: 50.1 µM [inhibitor, single point] | 
Cc1ccccc1CNC(=O)c1ccccc1C | inconclusive: 50.1 µM [inhibitor, single point] | 
CCOC(=O)CCCNC(=O)c1cncc(O)c1 |  | inactive: -8.23%
Cc1ccc(-c2csc(N/N=C/C=C/c3ccccc3)n2)cc1 | inconclusive: 35.5 µM [inhibitor, partial curve] | 
COc1ccc(/C(C)=N/NC(=O)CCC(=O)Nc2ccc(Cl)cc2Cl)c(OC)c1 | inconclusive: 44.7 µM [inhibitor, single point] | 
Nc1ccc(N=Nc2ccccc2Cl)c(N)n1 | inconclusive: 50.1 µM [inhibitor, single point] | 
COC(=O)c1ccc(CSc2nc3ccc(Cl)cc3[nH]2)o1 | inconclusive: 50.1 µM [inhibitor, single point] | 
CC1=CC(C)(C)N2C(=O)C3(C(C#N)=C(N)OC4=C3C(=O)CC(C)(C)C4)c3cc(C)cc1c32 (stereo not drawn) | inconclusive: 31.6 µM [inhibitor, partial curve] | 
Cc1cc(NCc2ccncc2)ccc1Br | inconclusive: 31.6 µM [inhibitor, partial curve] | 
COC(=O)c1[nH]c2ccccc2c1NS(=O)(=O)c1ccc(F)c(C)c1 | inconclusive: 28.2 µM [inhibitor, single point] | 

SMILES | Potency | activity change, negative = displacement
COc1cccc(C(=O)Nc2nc(-c3nnn(-c4ccccc4C(F)(F)F)c3C)ns2)c1 | inconclusive: 31.6 µM [inhibitor, partial curve] | 
CCC(C)(C)C1CCC(=NNC(=O)c2ccoc2C)CC1 (stereo not drawn) | inconclusive: 50.1 µM [inhibitor, single point] | 
CCC1=NN(C(=O)c2ccc(C)cc2)C(O)(c2ccc(Br)cc2)C1 (stereo not drawn) | inconclusive: 28.2 µM [inhibitor, single point] | 
C=CCn1c(-c2ccc(C)cc2)nc2ccccc21 | inconclusive: 31.6 µM [inhibitor, partial curve] | 
CC1=C(C(=O)Nc2ccccc2)C(c2ccccn2)n2nc(SCc3ccccc3)nc2N1 (stereo not drawn) |  | inactive: -0.972%
O=C(Nc1ccc(NC(=O)C23CC4CC(CC(C4)C2)C3)cn1)c1ccco1 | inconclusive: 28.2 µM [inhibitor, partial curve] | 
CCOC(=O)Cn1c(C)c(Br)c(=O)c2cccc(C)c21 |  | inactive: -13.2%
COc1cccc(CNC(=O)Cn2nc(C)n3c(cc4cc(C)ccc43)c2=O)c1OC | inconclusive: 10 µM [inhibitor, single point] | 
Nc1ccc(S(=O)(=O)Nc2ccc(C(=O)c3ccccc3)cc2)cc1 | inconclusive: 20 µM [inhibitor, partial curve] | 
CCOC(=O)C(C)N1C(=O)S/C(=C/c2ccc3c(c2)n(C)c(=O)n3C)C1=O (stereo not drawn) |  | inactive: -3.76%
COc1ccc(CNCCc2ccc([N+](=O)[O-])cc2)c(OC)c1OC |  | inactive: -12.1%
S=C(NCCCN1CCOCC1)N1CCN(c2nc(-c3ccc(Cl)cc3)cs2)CC1 |  | inactive: -3.06%
O=[N+]([O-])c1cnccc1NC1CCCCC1 | inconclusive: 25.1 µM [inhibitor, partial curve] | 
c1ccc(-c2cc3ccccc3[nH]2)cc1 | inconclusive: 3.98 µM [inhibitor, partial curve] | 
CCN(CC)S(=O)(=O)c1ccc2c(c1)N(CC(=O)Nc1ccc(Cl)cc1)C(=O)C1CCCN21 (stereo not drawn) | inconclusive: 50.1 µM [inhibitor, partial curve] | 
Nc1ccc(O)c2c1C(=O)c1ccccc1C2=O |  | inactive: -13.8%
Cc1ccc(C(=O)NC(=S)Nc2ccccc2N2CCCC2)cc1[N+](=O)[O-] |  | inactive: -17.9%
CCOc1ccc(N(CC(=O)Nc2ccccc2OCC)S(=O)(=O)c2c(C)noc2C)cc1 |  | inactive: -8.15%
Cc1nc(C)c(C(=O)Nc2nc3c(C)cccc3s2)o1 | inconclusive: 35.5 µM [inhibitor, single point] | 
CCOC(=O)N1CCc2c(sc(NCc3cc(OC)ccc3OC)c2C(=O)Nc2cc(OC)ccc2OC)C1 |  | inactive: -13.5%
CCc1nnc(NC(=O)CCC(=O)N2CCN(c3cc(Cl)ccc3C)CC2)s1 | inconclusive: 22.4 µM [inhibitor, partial curve] | 
CCC1(C)Cc2c(sc3nnn(CC(=O)Nc4cccc5ccccc45)c(=O)c23)CO1 (stereo not drawn) | inconclusive: 12.6 µM [inhibitor, partial curve] | 
